The campaign covered roughly 150,000 compounds. About 540 (0.36%) showed an effect of 50% or more. The list shows a part of the results.

For the experiment, the system named is Plasmodium falciparum. The experiment can be described thus: Primary screen in NF54 nanoGlo assay, in single point, at 2uM, 72h; a lower Z score goes with more inhibition. Type of experiment: functional, Erythrocyte. The conditions noted are these: timepoint 72 hour.
For `CC(C)(C)CC(=O)N1CC(Nc2ncccn2)C1`, the % Inhibition – broadly, the relative decrease from the control value, in per cent – is -11% and the Z score is 1.23.
For `CN1CC2(CCN(C(=O)c3ccccc3O)CC2)C[C@@H](c2ccccc2)C1=O`, in that order: -14% and 1.81.
Turning to `CCn1ncc2ccc(NC(=O)N[C@@H](C)C(=O)NCc3ccccc3)cc21`, the “% Inhibition” value was found to be 4% and the Z score is given as -0.54.
Turning to `O=C(c1conc1-c1ccccc1)N1CCN2C(=O)OC[C@H]2C1`, the “% Inhibition” value is on record as -2% and the Z score came out at 0.41.
For `Cc1noc(C)c1CCC(=O)NCc1cc2n(n1)CCN(C1CCCCC1)C2`, the “% Inhibition” value is listed as -1% and the Z score is 0.18.
For `CCOC(=O)C[n+]1c(Cc2ccccc2)sc2ccccc21`, in that order: -19% and 2.87.
For `Cc1nc2n(n1)C[C@@H](C(=O)N1CCCc3c(Cl)ccc(F)c31)CC2` the same measures were -1% and 0.11.
For `COc1ccccc1CN(C(C)=O)C1CC(C)(C)N(C(C)=O)C(C)(C)C1`, in that order: 1% and -0.08.
Consider `C[C@]1(c2ccc(S(C)(=O)=O)cc2)NC(=O)N(c2ccc(Cl)cn2)C1=O`, for which the “% Inhibition” value was -27% and the Z score was found to be 3.12.
For `Nc1ccc(C(=O)N2CCC3(CCC(=O)N(CCc4c[nH]cn4)C3)CC2)cn1` the same measures were -15% and 2.22.
Take `O=C(Cc1c[nH]c(=O)[nH]c1=O)N1CCC[C@H](c2[nH]ncc2Cc2ccccc2)C1`: the “% Inhibition” value was -11% and the Z score is reported as 1.07.
Consider `Cn1c(OC2CCCC2)nc2cccnc21`, for which the “% Inhibition” value is -5% and the Z score is given as 0.68.
In the case of `Cc1ccc(CN2CCCN(c3ccc(C(=O)N4CCN(c5ccccc5)CC4)cc3)C2=O)cc1`, the “% Inhibition” value worked out at 8% and the Z score is given as -1.36.
For `CN(Cc1nc(Cc2ccccc2F)no1)CC1(N2CCOCC2)CCCCC1`, in that order: -7% and 0.93.
For `CC[C@@H](C#N)S(=O)(=O)N1CCN(CC)c2ccccc21`, in that order: 5% and -0.49.
Take `CN1CCO[C@@H]2CN(C(=O)c3cnc4c(c3)c(C(C)(C)C)nn4C)C[C@@H]21`: the “% Inhibition” value is listed as -23% and the Z score is on record as 2.91.
For `Cc1ccc(C(=O)N/C(=N/c2cccc(C)c2C)NCc2cccnc2)cc1`, in that order: -9% and 1.47.
For `Cc1nnc(-c2ccc3ccn(CC(=O)Nc4ccc(F)c(Cl)c4)c3c2)o1` the same measures were 85% and -10.55.
For `CS(=O)(=O)C1CC2CCC(C1)N2C(=O)CCc1ccc(Cl)c(F)c1` (configuration not stated) the same measures were -22% and 2.86.
On to `O=C1NCCN(C(=O)c2cc(F)cc(F)c2)[C@H]1Cc1ccccc1`, for which the “% Inhibition” value was -18% and the Z score stood at 2.46.
With `O=C(c1cc2nc(-c3ccc(Br)cc3)cc(C(F)(F)F)n2n1)N1CCN(C(c2ccccc2)c2ccccc2)CC1`, the “% Inhibition” value was -1% and the Z score turned out to be 0.2.
As to `COCCN1C[C@@H]2c3ccc(OC)cc3OC[C@]2(CO)C1`, the “% Inhibition” value was -13% and the Z score is on record as 2.53.
For `Nc1ccc2nn(-c3cccc4ccccc34)nc2c1` the same measures were 6% and -1.05.
For `CCn1cc(Cl)c(-c2nnc(Nc3cn(C)nc3C)s2)n1` the same measures were -4% and 0.56.
For `O=C(NC1CC1)[C@H]1CCCN(C2CCN(CCCc3ccccc3)CC2)C1`, in that order: 5% and -0.55.
As for `Clc1ccc(NCC2CC2)cc1Cl`, the “% Inhibition” value is recorded as -11% and the Z score is recorded as 1.71.
Regarding `O=C(CCN1CCCC1=O)N[C@@H]1COCC[C@@H]1Oc1cccc(F)c1`, the “% Inhibition” value is -10% and the Z score stood at 1.92.
Regarding `NC(=O)c1c(F)cccc1NCC(C1CC1)C1CC1`, the “% Inhibition” value is listed as 16% and the Z score was -2.02.
For `Cc1ccc(N2C[C@H](C(=O)O)[C@@H](C(C)C)C2)nn1` the same measures were -13% and 1.69.
As for `COc1ccc(CN[C@@H]2CN(Cc3ccccc3)C(C)(C)C2)cn1`, the “% Inhibition” value is given as -9% and the Z score turned out to be 0.81.
Turning to `CC(=O)NCC1CN(C(C(=O)NC2CC2)c2ccc(F)cc2)CCO1` (configuration not stated), the “% Inhibition” value is listed as -7% and the Z score amounted to 1.16.
For `COc1ccc(CCN2Cc3cc(NC(=O)c4ccc(Cl)c(Cl)c4)ccc3O[C@@H](C)C2=O)cc1OC`, in that order: -10% and 0.92.
As to `C[C@H](NC(=O)Nc1ccncc1F)C1CC1`, the “% Inhibition” value is recorded as -11% and the Z score was 1.64.
For `COC(=O)NCC(=O)N1CCC[C@@]2(CCC(=O)N(Cc3ccncc3)C2)C1` the same measures were 11% and -1.46.
For `CCCCN(CC(N)=O)S(=O)(=O)Cc1cc(Cl)cc(Cl)c1`, in that order: -10% and 2.22.
With `Cn1ccnc1[C@@H](NC(=O)c1cc(F)cc2ccoc12)C(C)(C)CO`, the “% Inhibition” value is listed as -13% and the Z score was 1.41.
For `CO[C@@]1(C)CCCN(Cc2ccsc2)C1`, in that order: -6% and 1.06.
Take `Cc1ncnc(N2CCC(N3CCC[C@H](C(=O)NCc4ccccn4)C3)CC2)c1C`: the “% Inhibition” value is -11% and the Z score is on record as 2.17.
For `O=C(COc1ccccc1)N1CCCN(C2=Nc3cc(C(F)(F)F)ccc3Oc3ccccc32)CC1`, the “% Inhibition” value is listed as -11% and the Z score was 1.73.
With `CC(C)=CC1C(C(=O)N2CCN(Cc3ccc4c(c3)OCO4)CC2)C1(C)C` (configuration not stated), the “% Inhibition” value is given as 27% and the Z score is -3.07.
For `CO[C@H]1COC[C@@H]1NC(=O)c1ccc(-c2ccc(C)o2)cc1`, in that order: -19% and 3.33.

(Values after ChEMBL document CHEMBL4888484, “Replenishing the malaria drug discovery pipeline: Screening and hit evaluation of the MMV Hit Generation Library 1 (HGL1) against asexual blood stage Plasmodium falciparum ,using a nano luciferase reporter read-out” (2022).)
